Test results reported in the RNAGym collection of RNA variant scans (doi:10.7554/elife.90254).
The source gives no read counts; variants with many changes may rest on few reads.

B1: LINE1-mini (parent)
chain: GGCAGAGCUCAACACAGCGUGGCAAAGUGGCUGUGGCUAGACUGCC

Variants of: B1
Assay: self-cleavage, relative activity (ratio to wild type); higher = more cleavage; in vitro, sequencing; the parent is a self-cleaving ribozyme
In the case of G30A G36C C37U U43A C45G, the self-cleavage is reported as 0.05. Variant G7C C18A C23U C37U has a self-cleavage of 0.05. Work on C3G G17A C23G U32G yielded a self-cleavage of 0.03. Variant G36C C37A G40C has a self-cleavage of 0.21. For C8U G19A C37U C42A, the self-cleavage was 0.09. G5A C18G C42U showed a self-cleavage of 0.32. Work on C8U C15A G19C C23A A41C yielded a self-cleavage of 0.02. Work on G19C C23U G27C G35A U38C G40U yielded a self-cleavage of 0.09. Variant C3G C23A G44A has a self-cleavage of 0.47. For G35C G36U A41U C42A, the self-cleavage was 0.09. G27U C31A U32G showed a self-cleavage of 0.08. With A4G A11G G22U the self-cleavage was 0.03. With C23G U28A C45U the self-cleavage was 1.32. C13G C23U A41U gave a self-cleavage of 0.09. In the case of G17U G19U U34G A41U, the self-cleavage is reported as 0.1. G2U A14C G27U U32C G44A gave a self-cleavage of 0.01. In the case of C13U A14G A26C G33U, the self-cleavage is reported as 0. For A25U U28G G30U C31G, the self-cleavage was 0.1. Variant G5U U9C A25C has a self-cleavage of 0.02. For C3A A26C U34G, the self-cleavage was 0.14. G1A G21C G36A showed a self-cleavage of 0.4. Variant C3A C8U U9G has a self-cleavage of 0.35. Work on G1C A6G G40A A41C yielded a self-cleavage of 0.07. G33U G40A C45U gave a self-cleavage of 0.06. Work on C3A C8U A24U G33A yielded a self-cleavage of 0.49. A14C G27A U34G gave a self-cleavage of 0.04. With A26U G29A G40A the self-cleavage was 0.01. G27U G35A G40A C42G showed a self-cleavage of 0.05. C3U A4C G5U U38G gave a self-cleavage of 0.03. For A11U G27A G40A, the self-cleavage was 0.01. U9G C18A A25U showed a self-cleavage of 0.01. With G2C C3A C15A U28C G33C the self-cleavage was 0.02. For C8A C18G G22U G27C G29U, the self-cleavage was 0.1. A11C C13G U28G G30A G40U C46G gave a self-cleavage of 0. In the case of G17A C23G G29A G40C, the self-cleavage is reported as 0.04. Variant C10A A11U G17C C37A has a self-cleavage of 0.01. In the case of A6G A12G G21A C37G, the self-cleavage is reported as 0.02. Variant G2A C10U C15G U34A has a self-cleavage of 0.06. C15G G36A C37A gave a self-cleavage of 0.01. Variant C8G A12G C13U G29U has a self-cleavage of 0. For A12U G17U C45G, the self-cleavage was 0.04. Work on A4G A12C A16G G17A G29C yielded a self-cleavage of 0.01. For U9C A12C A14C G19U A24G U38G, the self-cleavage was 0. Variant G30A C31G C37A U38G has a self-cleavage of 0.05. G1C G19C C23U gave a self-cleavage of 0.06. For C10A G22A A24G U38A, the self-cleavage was 0.04. In the case of A4G G21C C45U, the self-cleavage is reported as 0.09. Work on G17U G22U G29A C42U G44C C46A yielded a self-cleavage of 0.03. Work on U20A C23A G30A A39G A41C G44U yielded a self-cleavage of 0.05. C8A C18A A26G showed a self-cleavage of 0.09. U9G C10A A24C gave a self-cleavage of 0.01. In the case of G5A A6U C13G, the self-cleavage is reported as 0.05. C23A U32A G44A gave a self-cleavage of 0.07. In the case of C3A C13G A25U U43A G44A, the self-cleavage is reported as 0.06. C3A C23U C46U showed a self-cleavage of 0.24. Variant C8U G35U G40C has a self-cleavage of 0.07. Work on C3U C8A G17C G29U A39U yielded a self-cleavage of 0.25. G7U A11U G44C showed a self-cleavage of 0.02. Variant A4G A25U G40U has a self-cleavage of 0.11. With G7C G17C G22C C23G G35U G40C the self-cleavage was 0. Variant C8A G35C U38A U43A has a self-cleavage of 0.15. Variant G17A U20A C45G has a self-cleavage of 0.01. In the case of G1A G7C C15U G36U, the self-cleavage is reported as 0.72. Variant G1A G36C C46A has a self-cleavage of 0.25. Work on G2U A24U A25C U34G G35U G44A yielded a self-cleavage of 0.02. Work on U28C U32G G36U yielded a self-cleavage of 0.03. In the case of G7U A24C U38G, the self-cleavage is reported as 0.01. Variant G5U C13U C42A has a self-cleavage of 0.03. Work on C15G G19A A25U G27A G30U G35A yielded a self-cleavage of 0.03. In the case of U9G G19C G22U G29A C31A, the self-cleavage is reported as 0.06. In the case of G5A G17U C31G G44A, the self-cleavage is reported as 0.09. With G35U C42A C45G the self-cleavage was 0.05. G2C U9A C10A A24U C31A U38C showed a self-cleavage of 0.01. G21U C23G A41C showed a self-cleavage of 0.04. A25U G27U G35C gave a self-cleavage of 0.12. Variant A11G A24G G40C has a self-cleavage of 0.01. In the case of G1U C23A U28G G35A, the self-cleavage is reported as 0.03. U9A G33A G40U gave a self-cleavage of 0.25. Work on C18G G29U G36C A41U U43C yielded a self-cleavage of 0.08. Work on G5U G19A G33C U38C yielded a self-cleavage of 0.01. Variant G2U C13G A24U C45A C46U has a self-cleavage of 0.02. Variant C3U C15A G17A C37G has a self-cleavage of 0.03. Work on U20C A26U G36A yielded a self-cleavage of 0.02.
